Experimental data published in the supplement of paper PMC8277577.

B1: C894 (protein)
chain 1: EVQLVQSGAEVKKPGESLRISCKGSGYSFTGYWISWVRQMPGKGLEWMGRIDPSDSYTNYSPSFEGHVTFSADTALSTAYLQWSSLQASDTAIYFCGRIAPPGRGSYYPTQNYMDVWGKGTTVTVSS
chain 2: EIVLTQSPGTLSLSPGERATLSCTADQSVPNSYLAWYQHKPGQAPRLLIYGASSRATGIPDRFSGSGSGIDFTLTISRLEPEDFAVYYCQQYGSLLLTFGGGTKVEIK
B2: C897 (protein)
chain 1: QVQLVESGGGVVQPGRSLRLSCAASGFIFSHYGMHWVRQAPGKGLEWVAVILYDGSDQYYADSVKGRFTISRDNSKNTLFLEMNSLRLEDTAVYYCAKGGGQYCSHGNCYLNYFDYWGQGALVTVSS
chain 2: DIQMTQSPSSLSASVGDRVTITCQASQDIRDNLNWYQQKPGKAPQLLIYDASNLQPGVPSRFSGSGSGTHFTFTISRLQPEDIATYFCQQYANLPTTFGPGTKVDIK
B3: C899 (protein)
chain 1: EVQLVESGGGLVKPGGSLRLSCAASGFTFSNAWMSWVRQAPGKGLEWVGRIKSKTDAETTDYAAPVRGRFTISRDNSKNTLYLEMNSLKTEDTAVYYCTTDADYSDSSGYYVTYYFEYWGQGSLVTVSS
chain 2: QSALTQPRSVSGSPGQSVTISCTGSNSDVGGYNYVSWYQQHPGKAPKLVIYDVSLRPSGVPDRFSGSKSGITASLTISGLQPEDEAHYYCCSFAGTYTPWVFGGGTRLTVL
B4: C889 (protein)
chain 1: EVQLVESGGGLVQPGGSLRLSCAVSGFTVSSNYMTWVRQAPGKGLEWVSLIYSGTSAFYADSVKGRFTISRDNSKNTLYLQMSSLRVNDTAIYYCARDLRKDDGYSYGAFDYWGQGTLVTVSS
chain 2: QSALTQPASVSGSPGQSITISCSGTSSDVGAHNYVSWYQQYPGKAPKLMIFDVTDRPSGVSNRFSGSKSGNTASLTISGLQAEDEADYYCTSYTTNRSWVFGGGTKVTVL
B5: C838 (protein)
chain 1: EVQLVESGGGLVQPGKSLRLSCTASGFTFEDYAMHWVRQAPGKGLEWVSGINWKSGSRGYADSAKGRFTISGNTAKNTLHLQMNSLRAEDTAFYYCAKAGVRNIAAAGPDLNFDFWGQGTLVTVSS
chain 2: EIVLTQSPATLSLSPGERATLSCRASQSVGTYLAWYQHKLGQAPRLLIYDATKRATGIPARFSGSGSGTDFTLTISSLEPEDFAIYYCQQRITFGQGTRLEIK
B6: C898 (protein)
chain 1: QVQLVQSGAEVKKPGSSVKVSCKASGGPFSSYAFTWVRQAPGQGLEWMGGIIATFGTVNYAQKFQGRVTITADEFTSTVNMELSSLRSDDTAVYYCARRDCSTTSCYDEVLYRLVDWGQGTLVTVSS
chain 2: EIVLTQSPGTLSLSPGERATLSCRASQSVNSDYLAWYKQKPGQAPRLLIYGTSSRATGIPDRFSGSGSGTDFTLTISRLEPDDFAVYYCQQYGNSPRTFGQGTKVEIK
B7: C893 (protein)
chain 1: EVQLVQSGAEVKKPGESLKISCKGSGYYFTRQWIGWVRQMPGKGLEWMGIIYPGDSDTRYSPSFQGQVTISADKSISTAYLQWSSLKASDTAMYYCARGGWDPAEYSSSGGGGLDAFDIWGQGTMVTVSS
chain 2: EIVLTQSPATLSLSPGERATLSCRASQSVSSYLAWYQQRPGRAPRLLIYDASNRATGIPGRFSGSGSGTDFSLTISSLEPEDFAVYYCQQRSSWPLTFGQGTRLEIK
B8: C892 (protein)
chain 1: EVQLVESGGGLVKPGGSLKVSCTASGFTFTDAWMSWVRQAPGKGLEWVGRIKSRAYGGTTDYGAPVQGRFTISRDDSINTLYLQMNSLTAEDTAVYYCTSQLWLRGPGDYWGQGTLVTVSS
chain 2: NFMLTQPHSVSESPGKTVTISCTGSSGSIASNYVHWYQQRPGGAPTTVIYEDNQRPSGVPDRFSGSIDISSNSASLTISGLKTEDEGDYYCQSYDSGVNWVFGGGTKLTVL
B9: C896 (protein)
chain 1: QVQLVESGGGVVQPGRSLKLSCAASGFTFKTYGMHWVRQAPGKGLEWVAVISYDGTNDYYADSVKGRFTVSRDNSKNTLYLQMNSPRTEDTAVYYCAKAGGPYYYDTSGSFWYFDYWGQGTLVTVSS
chain 2: DIQMTQSPSSLSASVGDRVTITCRASQTISSYLNWYQQKSGKAPELLVYDASNLESGVPSRFSGSGSGTDFTLTISSLQPEDFATYYCQQSYSFGPGTKVDIK
B10: C895 (protein)
chain 1: QVQLVQSGAEVKKPGSSVKVSCKASGGTFTSYAFSWVRQAPGQGLEWMGGIIPIFGTTNYAQKFQGRVTITADESTSTAYMELSSLRSEDTAVYYCARPEGCGSRTSCTPGAYYYGMDVWGQGTTVTVSS
chain 2: EIVLTQSPATLSLSPGERATLSCRASQSVGSYLAWYQQKPGQAPRLLIYDASNRATGIPARFSGSGSGTDFTLTISSLEPEDFAFYFCQQRNSWPPEYSFGQGTKLEIK

Target: SARS-CoV-2 Wuhan-Hu-1 spike receptor-binding domain
Test: ELISA binding EC50; higher = weaker binding; ELISA of recombinant human antibody on coated antigen, from 10 µg/ml in fourfold dilutions; four-parameter fit.

Binder | ELISA binding EC50 [ng/mL]
B1 | 16.8
B2 | 1.88
B3 | 2.23
B4 | 4.25
B5 | 3.03
B6 | 7.6
B7 | 3.73
B8 | 2.9
B9 | 4.3
B10 | 2.21

Recombinant human monoclonal antibodies (heavy:light variable regions). ELISA EC50 on the named antigen, from 10 µg/ml down; lower = stronger. No active / inactive call.
